Reference: publication PMC4336329 (PLoS ONE, 2015)
Among all 310,000 compounds or so, about 2,200 (0.71%) showed an effect of 50% or more. Effects have a minus sign here. The list shows a part of the results.

Target: human ether-à-go-go-related gene (hERG) potassium channel (human, UniProt Q12809)
Experiment: primary screen, population patch clamp on CHO cells stably expressing hERG

Sequence of human ether-à-go-go-related gene (hERG) potassium channel (Q12809 whole entry, looked up): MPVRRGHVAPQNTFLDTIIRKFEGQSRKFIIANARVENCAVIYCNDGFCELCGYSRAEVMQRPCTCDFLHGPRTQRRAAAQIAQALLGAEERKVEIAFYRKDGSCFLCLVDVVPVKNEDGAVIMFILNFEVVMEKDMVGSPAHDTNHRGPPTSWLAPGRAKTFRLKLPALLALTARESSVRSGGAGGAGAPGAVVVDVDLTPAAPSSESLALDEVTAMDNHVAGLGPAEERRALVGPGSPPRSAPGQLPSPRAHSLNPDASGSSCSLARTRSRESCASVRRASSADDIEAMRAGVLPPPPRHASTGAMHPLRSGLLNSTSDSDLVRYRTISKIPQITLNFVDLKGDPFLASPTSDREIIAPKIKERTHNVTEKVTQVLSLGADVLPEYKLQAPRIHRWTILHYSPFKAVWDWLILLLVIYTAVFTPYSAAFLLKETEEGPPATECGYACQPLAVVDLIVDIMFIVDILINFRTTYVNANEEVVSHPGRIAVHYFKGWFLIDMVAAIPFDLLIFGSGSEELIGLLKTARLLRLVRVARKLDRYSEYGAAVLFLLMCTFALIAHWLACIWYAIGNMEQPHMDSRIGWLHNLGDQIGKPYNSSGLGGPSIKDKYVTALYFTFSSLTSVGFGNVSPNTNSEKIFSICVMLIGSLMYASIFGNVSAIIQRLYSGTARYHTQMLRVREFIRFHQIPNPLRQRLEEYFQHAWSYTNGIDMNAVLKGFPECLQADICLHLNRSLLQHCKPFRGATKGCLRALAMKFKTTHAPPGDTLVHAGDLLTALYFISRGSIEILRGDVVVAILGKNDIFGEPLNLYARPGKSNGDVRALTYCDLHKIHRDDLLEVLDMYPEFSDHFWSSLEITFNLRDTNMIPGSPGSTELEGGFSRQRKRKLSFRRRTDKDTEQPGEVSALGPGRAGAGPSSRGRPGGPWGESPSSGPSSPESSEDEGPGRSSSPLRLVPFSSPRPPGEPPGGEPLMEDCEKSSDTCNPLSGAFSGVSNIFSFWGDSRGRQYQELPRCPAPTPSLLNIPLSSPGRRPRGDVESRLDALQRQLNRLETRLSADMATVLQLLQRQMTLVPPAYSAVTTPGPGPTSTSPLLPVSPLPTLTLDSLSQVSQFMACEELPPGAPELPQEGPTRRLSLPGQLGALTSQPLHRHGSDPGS

Row | SMILES | hERG current change (%, negative = inhibition) at 1uM [%]
1 | Cc1ccc(OCc2nc(-c3ccccn3)n[nH]2)cc1 | 1.54
2 | Cc1ccc(CSCc2nnc(SCC(=O)N3CCN(c4ccccc4)CC3)n2C)cc1 | -22.4
3 | CCn1c2ccccc2c2cc(NC(=S)N3CCOCC3)ccc21 | 7.76
4 | O=c1cc(-c2ccc([N+](=O)[O-])cc2)nc2cc(-c3ccc(F)cc3)[nH]n12 | 5.3
5 | COc1ccc(-c2nc(SCC(=O)N3CCOCC3)n[nH]2)cc1 | -2.31
6 | O=C(Nc1ccc(Br)cc1)c1csc(-c2ccncc2)n1 | 7.93
7 | COc1ccccc1C1/C(=C(\O)c2ccc3c(c2)OCCO3)C(=O)C(=O)N1Cc1cccnc1 (stereo not shown) | 17.8
8 | CCOc1ccc(CNCc2cccnc2)cc1 | -5.57
9 | CC(C)CN(CCCNC(=O)CN1C(=O)CSc2ccc(S(=O)(=O)N3CCOCC3)cc21)CC(C)C | 5.83
10 | CCCCN(C)CCCNC(=O)c1cc(-c2cccnc2)nc2ccccc12 | -20.2
11 | CC(C)C(NS(=O)(=O)c1ccc2c(c1)oc(=O)n2C)C(=O)N1CCN(c2ccccc2F)CC1 (stereo not shown) | 6.08
12 | CCOC(=O)C(Cc1ccccc1)NC(=O)CCC(=O)c1ccc(OC)cc1 (stereo not shown) | 10.7
13 | CC(C)c1ccc(-c2nn(-c3ccccc3)cc2C(=O)NCC2CCCO2)cc1 (stereo not shown) | 11.7
14 | CC(=O)NC(C)(CC(=O)c1ccccc1)c1ccccc1 (stereo not shown) | 12.9
15 | Cc1ccc(C2NC(=O)NC(O)(C(F)(F)F)C2C(=O)c2ccccc2)o1 (stereo not shown) | 3.68
16 | Cn1nc(-c2ccccc2)c2ncc(C(F)(F)F)cc21 | -5.35
17 | CC(=O)/C(=N/Nc1ccc([N+](=O)[O-])cc1)N1CCCc2ccccc21 | 13.3
18 | COc1ccc(S(=O)(=O)Nc2ccc3c(c2)OCO3)cc1Cl | -1.66
19 | O=C(Cc1ccc(Br)cc1)N1CCc2ccccc2C1 | 14.8
20 | COc1cc(/C=N/NC(N)=O)c(Br)cc1OCC(=O)Nc1ccccc1C | 0.504
21 | Cc1ccc(OCC(=O)Nc2ccc(F)cc2)cc1C | 11.3
22 | COc1ccc(N=C2C(=O)Nc3ccccc32)cc1 | -7.5
23 | NC(=O)c1c(NC(=S)Nc2ccccc2)sc2c1CCCC2 | 21.1

Row | SMILES | hERG current change (%, negative = inhibition) at 1uM [%]
24 | CCOC(=O)c1sc2c(c1C)c(=O)c(C(=O)OCC)cn2CC | 13.9
25 | Cn1c(=O)oc2cc(S(=O)(=O)NCCC(=O)NCCc3ccccc3)ccc21 | 11.8
26 | CCOC(=O)c1cc2cc(OCc3ccccc3)ccc2nc1C | 8.83
27 | CCOc1ccc(N(CC(=O)N/N=C/c2cccnc2)S(C)(=O)=O)cc1 | 12.9
28 | NS(=O)(=O)c1ccc(NC(=O)/C=C/c2ccc3c(c2)OCO3)cc1 | 19
29 | COc1ccc(Cc2nc3ccc(C(=O)NCc4cc(C)no4)cc3o2)cc1 | 17.8
30 | Cc1ccc(CN2CCC(n3nccc3NC(=O)C3CCOC3)CC2)cc1 (stereo not shown) | 4.04
31 | CCCNC(=O)c1cc(-c2ccc3c(c2)OCO3)on1 | 14.5
32 | CC1=C(C#N)C(=O)N(C)C(C)(C)C1 | 4.64
33 | CC(NC(=O)c1ccccc1)C(=O)N/N=C/c1ccc(O)cc1 (stereo not shown) | 13.5
34 | COc1ccc(NS(=O)(=O)c2ccc(O)c(C(=O)OCC(=O)N3CCCCC3)c2)cc1 | 12.4
35 | CCOC(=O)c1ccc(N(CC(=O)NCC2CCCO2)C(=O)CCC(=O)Nc2cc(C)on2)cc1 (stereo not shown) | 16.9
36 | CCN1CCN(c2nc(-c3ccccc3)c3ccccc3n2)CC1 | -30.1
37 | CCOc1ncccc1C(=O)NCCc1ccc(Cl)cc1 | 7.04
38 | Cc1ccc2nc(-c3ccc(Br)cc3)cn2c1 | 10.6
39 | Cc1cc2n(n1)SC(Nc1ccc(F)c(Cl)c1)N2 (stereo not shown) | -9.15
40 | O=C(NC1CCCCC1)NC1C2CC3CC(C2)CC1C3 (stereo not shown) | 7.9
41 | COc1ccccc1NC(=O)C1=C(C)Nc2nc(-c3cccs3)nn2C1c1cccc(O)c1 (stereo not shown) | -9.47
42 | CCCn1cnc2c(=S)nc(N)[nH]c21 | 11.4
43 | CC(=O)N1CCN(CC(=O)Nc2ccccc2Sc2ccc(Cl)cc2)CC1 | -58.3
44 | CN(CC(=O)O)S(=O)(=O)c1cccs1 | 7.4
45 | CC(Cc1n[nH]c(=S)o1)c1ccccc1 (stereo not shown) | 4.48
46 | CC(=O)N(C(C)=O)C1=C(C#N)C2(CCCCC2)Cc2ccccc21 | 13.7
